Positions count from the first letter of the chain named. Names may count otherwise.
B1: A14E, B(-78K^), B(-77P), B(-1)(GQAPGQAPGQEP)6-GQAP, B3Q, B25H, B29R, desB30 human insulin/(227A, 234A, 235K hIgG4-Fc([…])) … (other)
chain 1: [letters of about 20 residues not shown]
chain 2: KPGQAPGQAPGQEPGQAPGQAPGQEPGQAPGQAPGQEPGQAPGQAPGQEPGQAPGQAPGQEPGQAPGQAPGQEPGQAPFVQQHLCGSHLVEALYLVCGERGFHYTPR
chain 3: ASCPAPEAKGGPSVFLFPPKPKDTLMISRTPEVTCVVVDVSQEDPEVQFNWYVDGVEVHNAKTKPREEQFNSTYRVVSVLTVLHQDWLNGKEYKCKVSNKGLPSSIEKTISKAKGQPREPQVYTLPPSQEEMTKNQVSLTCLVKGFYPSDIAVEWESNGQPENNYKTTPPVLDSDGSFFLYSRLTVDKSRWQEGNVFSCSVMHEALHNHYTQKSLSLSLGK
modifications: Cys229 (EU numbering) sulphur bound to an acetyl arm of the linker; B(-78K) N(eps) acylated by the trivalent linker 4-[bis[2-[(2-acetyl)amino]ethyl]amino]-4-oxo-butanoyl
notes: also called Ex 5.3
B2: A14E, B(-78K^), B(-77P), B(-1)(GQEP)19, B25H, B29R, desB30 human insulin/(227A, 234A, 235K hIgG4-Fc([…])) 4-[bis[2-[(2-acetyl)amino]ethyl]amino]-4-oxo-butanoyl … (other)
chain 1: [letters of about 20 residues not shown]
chain 2: KPGQEPGQEPGQEPGQEPGQEPGQEPGQEPGQEPGQEPGQEPGQEPGQEPGQEPGQEPGQEPGQEPGQEPGQEPGQEPFVNQHLCGSHLVEALYLVCGERGFHYTPR
chain 3: B1 chain 3
modifications: Cys229 (EU numbering) sulphur bound to an acetyl arm of the linker; B(-78K) N(eps) acylated by the trivalent linker 4-[bis[2-[(2-acetyl)amino]ethyl]amino]-4-oxo-butanoyl
notes: also called Ex 5.4
B3: A14E, B(-78K^), B(-77P), B(-1)(GQEP)19, B25H, B29R, desB30 human insulin/(227A, 234A, 235K, 297E, 315Q, 384Q, des447 hIgG4-Fc([…])) … (other)
chain 1: [letters of about 20 residues not shown]
chain 2: B2 chain 2
chain 3: ASCPAPEAKGGPSVFLFPPKPKDTLMISRTPEVTCVVVDVSQEDPEVQFNWYVDGVEVHNAKTKPREEQFESTYRVVSVLTVLHQDWLQGKEYKCKVSNKGLPSSIEKTISKAKGQPREPQVYTLPPSQEEMTKNQVSLTCLVKGFYPSDIAVEWESQGQPENNYKTTPPVLDSDGSFFLYSRLTVDKSRWQEGNVFSCSVMHEALHNHYTQKSLSLSLG
modifications: Cys229 (EU numbering) sulphur bound to an acetyl arm of the linker; B(-78K) N(eps) acylated by the trivalent linker 4-[bis[2-[(2-acetyl)amino]ethyl]amino]-4-oxo-butanoyl
notes: also called Ex 5.11
B4: A14E, B(-78K^), B(-77P), B(-1)(GQAP)19, B25H, B29R, desB30 human insulin/(227A, 234A, 235K, 297E, 315Q, 384Q, des447 hIgG4-Fc([…])) … (other)
chain 1: [letters of about 20 residues not shown]
chain 2: B1 chain 2 with E13A, E25A, E37A, E49A, E61A, E73A, Q81N
chain 3: B3 chain 3
modifications: Cys229 (EU numbering) sulphur bound to an acetyl arm of the linker; B(-78K) N(eps) acylated by the trivalent linker 4-[bis[2-[(2-acetyl)amino]ethyl]amino]-4-oxo-butanoyl
notes: also called Ex 5.18

What was measured:
[1] = biological target: insulin receptor of isolated rat adipocytes (rat, UniProt P15127); test: cell-based or functional assay
[2] = biological target: insulin receptor A; test: insulin receptor binding assay as in Vienberg et al. 2011; relative to human insulin on insulin receptor A (100%)

Row | Binder | Lipogenesis in rat adipocytes [Potency (%)] Mean Value [1] | Insulin receptor affinity [IC50 relative to HI (%)] [2]
1 | B1 | 0.55 % of human insulin | 2.57%
2 | B2 | 0.36 % of human insulin | 2.14%
3 | B3 | 0.39 % of human insulin | 1.72%
4 | B4 | – | 2.78%

Source: patent US20200261595A1 (Novo Nordisk, published 2020)
